Some of the results follow.
Key:
Assay in all cases: glycan array binding signal (z-score within array); higher = stronger binding
Settings in all cases: glycan notation: IUPAC condensed, linker removed
[1] = target: GlcNAc(b1-2)Man(a1-3)[GlcNAc(b1-2)Man(a1-6)]Man(b1-4)GlcNAc(b1-4)GlcNAc
Summary of the method: (§1)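 Columns mapping to the same glycan were averaged after glycan names were converted to IUPAC-condensed notation. The data come from 3228 arrays in the Consortium for Functional Glycomics database, limited to those with an available protein sequence. Binding is reported as a within-array Z-score averaged across arrays of one protein sequence and across linkers.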

[2] = target: GlcNAc(b1-3)Gal
Summary of the method: as §1

[3] = target: GlcNAc(b1-3)Gal(b1-3)GalNAc
Summary of the method: as §1

[4] = target: GlcNAc(b1-3)Gal(b1-4)Glc
Summary of the method: as §1

[5] = target: GlcNAc(b1-3)Gal(b1-4)GlcNAc
Summary of the method: as §1

[6] = target: GlcNAc(b1-3)Gal(b1-4)GlcNAc(b1-3)Gal(b1-4)GlcNAc
Summary of the method: as §1

[7] = target: GlcNAc(b1-3)GalNAc
Summary of the method: as §1

[8] = target: GlcNAc(b1-3)[GlcNAc(b1-4)][GlcNAc(b1-6)]GlcNAc
Summary of the method: as §1

[9] = target: GlcNAc(b1-3)[GlcNAc(b1-6)]Gal(b1-4)GlcNAc
Summary of the method: as §1

[10] = target: GlcNAc(b1-3)[GlcNAc(b1-6)]GlcNAc
Summary of the method: as §1

[11] = target: GlcNAc(b1-4)Gal(b1-4)GlcNAc
Summary of the method: as §1

[12] = target: GlcNAc(b1-4)GlcNAc(b1-4)GlcNAc
Summary of the method: as §1

[13] = target: GlcNAc(b1-4)GlcNAc(b1-4)GlcNAc(b1-4)GlcNAc(b1-4)GlcNAc
Summary of the method: as §1

[14] = target: GlcNAc(b1-4)GlcNAc(b1-4)GlcNAc(b1-4)GlcNAc(b1-4)GlcNAc(b1-4)GlcNAc
Summary of the method: as §1

[15] = target: GlcNAc(b1-4)[GlcNAc(b1-6)]GalNAc
Summary of the method: as §1

[16] = target: GlcNAc(b1-6)Gal(b1-4)GlcNAc
Summary of the method: as §1

[17] = target: GlcNAc(b1-6)GalNAc
Summary of the method: as §1

[18] = target: Kdn(a2-3)Gal(b1-3)GlcNAc
Summary of the method: as §1

[19] = target: Kdn(a2-3)Gal(b1-4)GlcNAc
Summary of the method: as §1

[20] = target: Man(a1-2)Man(a1-2)Man(a1-3)Man
Summary of the method: as §1

[21] = target: Man(a1-2)Man(a1-2)Man(a1-3)[Man(a1-2)Man(a1-3)[Man(a1-2)Man(a1-6)]Man(a1-6)]Man(b1-4)GlcNAc(b1-4)GlcNAc
Summary of the method: as §1

[22] = target: Man(a1-2)Man(a1-2)Man(a1-3)[Man(a1-2)Man(a1-6)[Man(a1-3)]Man(a1-6)]Man(b1-4)GlcNAc(b1-4)GlcNAc
Summary of the method: as §1

[23] = target: Man(a1-2)Man(a1-2)Man(a1-6)[Man(a1-3)]Man
Summary of the method: as §1

[24] = target: Man(a1-2)Man(a1-3)Man
Summary of the method: as §1

[25] = target: Man(a1-2)Man(a1-3)[Man(a1-2)Man(a1-6)]Man
Summary of the method: as §1

[26] = target: Man(a1-2)Man(a1-3)[Man(a1-3)[Man(a1-6)]Man(a1-6)]Man(b1-4)GlcNAc(b1-4)GlcNAc
Summary of the method: as §1

[27] = target: Man(a1-2)Man(a1-3)[Man(a1-6)]Man(a1-6)[Man(a1-2)Man(a1-3)]Man(b1-4)GlcNAc(b1-4)GlcNAc
Summary of the method: as §1

[28] = target: Man(a1-3)[Man(a1-6)]Man
Summary of the method: as §1

[29] = target: Man(a1-3)[Man(a1-6)]Man(a1-6)[Man(a1-3)]Man(b1-4)GlcNAc(b1-4)GlcNAc
Summary of the method: as §1

[30] = target: Man(a1-3)[Man(a1-6)]Man(b1-4)GlcNAc(b1-4)GlcNAc
Summary of the method: as §1

[31] = target: Man(b1-4)GlcNAc
Summary of the method: as §1

[32] = target: Neu5Ac(a2-3)Gal
Summary of the method: as §1

[33] = target: Neu5Ac(a2-3)Gal(b1-3)GalNAc
Summary of the method: as §1

[34] = target: Neu5Ac(a2-3)Gal(b1-3)GalNAc(b1-3)Gal(a1-4)Gal(b1-4)Glc
Summary of the method: as §1

[35] = target: Neu5Ac(a2-3)Gal(b1-3)GalNAc(b1-4)[Neu5Ac(a2-3)]Gal(b1-4)Glc
Summary of the method: as §1

[36] = target: Neu5Ac(a2-3)Gal(b1-3)GalNAc6S
Summary of the method: as §1

[37] = target: Neu5Ac(a2-3)Gal(b1-3)GlcNAc
Summary of the method: as §1

[38] = target: Neu5Ac(a2-3)Gal(b1-3)GlcNAc(b1-3)Gal(b1-3)GlcNAc
Summary of the method: as §1

[39] = target: Neu5Ac(a2-3)Gal(b1-3)GlcNAc(b1-3)Gal(b1-4)GlcNAc
Summary of the method: as §1

[40] = target: Neu5Ac(a2-3)Gal(b1-3)GlcNAc6S
Summary of the method: as §1

[41] = target: Neu5Ac(a2-3)Gal(b1-3)[Fuc(a1-4)]GlcNAc
Summary of the method: as §1

[42] = target: Neu5Ac(a2-3)Gal(b1-3)[Fuc(a1-4)]GlcNAc(b1-3)Gal(b1-4)[Fuc(a1-3)]GlcNAc
Summary of the method: as §1

[43] = target: Neu5Ac(a2-3)Gal(b1-3)[Neu5Ac(a2-3)Gal(b1-4)]GlcNAc
Summary of the method: as §1

B1: PEB3 Cj0289c (Campylobacter jejuni), Q9PIK7 (protein)
chain: MDVNLYGPGGPHTALKDIANKYSEKTGVKVNVNFGPQATWFEKAKKDADILFGASDQSALAIASDFGKDFNVSKIKPLYFREAIILTQKGNPLKIKGLKDLANKKVRIVVPEGAGKSNTSGTGVWEDMIGRTQDIKTIQNFRNNIVAFVPNSGSARKLFAQDQADAWITWIDWSKSNPDIGTAVAIEKDLVVYRTFNVIAKEGASKETQDFIAYLSSKEAKEIFKKYGWRE
glycan array binding signal (z-score) [1]: 0.434 | glycan array binding signal (z-score) [2]: -0.111 | glycan array binding signal (z-score) [3]: -0.114 | glycan array binding signal (z-score) [4]: -0.447 | glycan array binding signal (z-score) [5]: 0.507 | glycan array binding signal (z-score) [6]: -0.379 | glycan array binding signal (z-score) [7]: -0.314 | glycan array binding signal (z-score) [8]: -0.251 | glycan array binding signal (z-score) [9]: -0.234 | glycan array binding signal (z-score) [10]: -0.355 | glycan array binding signal (z-score) [11]: -0.422 | glycan array binding signal (z-score) [12]: -0.05 | glycan array binding signal (z-score) [13]: 0.274 | glycan array binding signal (z-score) [14]: 0.159 | glycan array binding signal (z-score) [15]: -0.066 | glycan array binding signal (z-score) [16]: -0.319 | glycan array binding signal (z-score) [17]: -0.441 | glycan array binding signal (z-score) [18]: -0.34 | glycan array binding signal (z-score) [19]: -0.263 | glycan array binding signal (z-score) [20]: 0.253 | glycan array binding signal (z-score) [21]: -0.256 | glycan array binding signal (z-score) [22]: -0.265 | glycan array binding signal (z-score) [23]: -0.192 | glycan array binding signal (z-score) [24]: -0.001 | glycan array binding signal (z-score) [25]: -0.277 | glycan array binding signal (z-score) [26]: -0.274 | glycan array binding signal (z-score) [27]: -0.25 | glycan array binding signal (z-score) [28]: -0.211 | glycan array binding signal (z-score) [29]: -0.392 | glycan array binding signal (z-score) [30]: 0.582 | glycan array binding signal (z-score) [31]: 0.207 | glycan array binding signal (z-score) [32]: -0.349 | glycan array binding signal (z-score) [33]: -0.392 | glycan array binding signal (z-score) [34]: -0.416 | glycan array binding signal (z-score) [35]: -0.335 | glycan array binding signal (z-score) [36]: -0.071 | glycan array binding signal (z-score) [37]: -0.32 | glycan array binding signal (z-score) [38]: -0.455 | glycan array binding signal (z-score) [39]: -0.441 | glycan array binding signal (z-score) [40]: -0.071 | glycan array binding signal (z-score) [41]: -0.368 | glycan array binding signal (z-score) [42]: -0.323 | glycan array binding signal (z-score) [43]: -0.423

From the supplement of paper PMC8728848
